# Reference: PubChem BioAssay AID1508624 (National Center for Advancing Translational Sciences (NCATS), 2021)
# In all, about 48,000 compounds went through this assay and about 120 (0.25%) were called active. Roughly 4% stayed inconclusive and do not appear here. Calls follow the shape of the dose curve; as a rule, active = well fitted activation curve with a large enough effect; inconclusive = small, poorly fitted or top-dose-only effect, or another doubt; inactive = no such curve, though single readings can be large or run the other way. The list shows a part of the results.
# Assay: Primary qHTS for Identification of Small Molecule Activators of Huntingtin-Antisense Promoter Activity; also: nearly all actives have a fitted effect of over 55% in size
# Details: HEK293 HTT-AS promoter firefly luciferase reporter (activity 0% = vehicle and -100% = no light), 24 h; series mostly up to 57.5 µM; activity change, positive = activation: at the top concentration
# Method in brief: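 Firefly luciferase signal from promoter-reporter HEK293 cells was scaled between vehicle (0%) and zero RLU (-100%). Compounds were tested at final concentrations of up to 57.5 uM over 24 h at 37 degrees C. PTC124 at 50 uM final served as control inhibitor.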
row,SMILES,"activity change, positive = activation"
1,CC(=O)c1cccc(NC(c2ccc(F)cc2)c2nnc(-c3ccccc3)o2)c1 (configuration not stated),inactive: -32.7%
2,CCSc1nnc2c(n1)OC(CC)N(C(C)=O)c1ccccc1-2 (configuration not stated),inactive: -15.3%
3,Cc1ccc(-n2nnnc2CNC(=O)C(C)C)cc1C,inactive: -0.184%
4,CCc1ccccc1NC(=O)NCc1ccc2c(c1)CCN2C(=O)c1ccccc1,inactive: -14.1%
5,O=C(Nc1ccccc1C(=O)OCc1cc(=O)n2c3c(sc2n1)CCCC3)c1cccc(Cl)c1,inactive: -7.24%
6,O=C(CSc1nccn1Cc1ccccc1)NCc1ccccc1Cl,inactive: 2.19%
7,CCOC(=O)CC(NC(=O)N1CCC(CN2CCC(C)CC2)CC1)c1ccccc1 (configuration not stated),inactive: -8.18%
8,CC(C)Cn1cc(NC(=O)N2CCN(c3ccccc3F)CC2)c2ccccc2c1=O,inactive: -11.9%
9,CC1(C)[C@@H]2CC[C@@]1(C)C(=O)C2,inactive: -5.54%
10,CC1=C(C(=O)Nc2ccc(C)cc2C)C(c2ccccc2)n2ncc(C(=O)Nc3ccccc3)c2N1 (configuration not stated),inactive: -20.9%
11,CCOC(=O)c1c(-c2ccccc2)csc1NC(=O)c1cc(-c2ccc(Cl)cc2)on1,inactive: -1.36%
12,CCOC(=O)c1sc(NC(=O)c2cc(-c3ccc(F)cc3)on2)c(C(=O)OCC)c1C,inactive: -1.08%
13,COC(=O)c1ccc2c(=O)n(CCCCCC(=O)N3CCN(c4ccc(OC)cc4)CC3)c(=O)[nH]c2c1,inactive: 17.5%
14,Cc1c(CC(=O)NCCc2ccc(Cl)cc2)c(=O)oc2c(C)c3occ(C(C)(C)C)c3cc12,inactive: -7.98%
15,Cc1ccc(NC(=O)C2CCCN(S(=O)(=O)c3cccc4cccnc34)C2)c(C)c1 (configuration not stated),inactive: -10.5%
16,CCOC(=O)CSc1nc2ccc(NC(=O)c3ccccc3F)cc2s1,inactive: -20.5%
17,CCOc1ccc(CNC(=O)c2ccc(Sc3ccc(Cl)cc3)c(NC(C)=O)c2)cc1OC,inactive: -34.5%
18,CCS(=O)(=O)c1nc(S(=O)(=O)c2ccc(Cl)cc2)c(NCc2ccccc2Cl)s1,inactive: -22.7%
19,COC(=O)C1=C(C)NC(C)=C(C(=O)OCCN2CCN(C(c3ccccc3)c3ccccc3)CC2)C1c1cccc([N+](=O)[O-])c1 (configuration not stated),inactive: -14.1%
20,O=C(NCCC1=CCCCC1)c1ccc2c(c1)ncn2-c1ccc(F)c(F)c1,inactive: 8%
21,CC(=O)c1ccc(N2CCN(S(=O)(=O)c3ccc4[nH]c5c(c4c3)CCCC5)CC2)cc1,inactive: -34.6%
22,O=c1c2c(-c3ccc(Cl)cc3)ccnc2[nH]n1-c1ccccc1,inactive: -4.48%
23,CCc1ccc(Nc2nc(N)nc(CSc3nc4ccccc4s3)n2)cc1,inactive: -14.7%
24,CCN(Cc1ccccc1)Cc1c(O)ccc2c(=O)c(-c3ccccc3Cl)c(C(F)(F)F)oc12,inactive: -4.68%

row,SMILES,"activity change, positive = activation"
1,COc1ccc(OC)c(C2c3c(oc4ccc(C)cc4c3=O)C(=O)N2CCCN(C)C)c1 (configuration not stated),inactive: -1.79%
2,C=Cc1c(C)c2cc3[nH]c(cc4nc(cc5nc(cc1[nH]2)C(C)=C5CCC(=O)O)C(CCC(=O)O)=C4C)c(C)c3C=C,inactive: -7.01%
3,CC(=O)Nc1cccc(NC(=O)c2c(-c3ccccc3)c(-c3ccccc3)nn(C)c2=O)c1,inactive: -15%
4,CCOCc1cc(CN2CCN(c3cccc(Cl)c3)CC2)c(O)c2ncccc12,inactive: -37%
5,CCc1ccccc1NS(=O)(=O)c1ccc2c(c1)OCC(C(=O)N1CCCC1)O2 (configuration not stated),inactive: -16.6%
6,CCCN(CCC)C(=O)CSc1nc2sc3c(c2c(=O)n1-c1ccccc1)CCN(C(C)=O)C3,inactive: -1.56%
7,CCc1ccc(-n2nc3ccc(NC(=O)c4ccc(C#N)cc4F)cc3n2)cc1,inactive: -6.88%
8,COc1cccc(CNC(=O)C2CCN(c3nnc(-n4c(C)ccc4C)s3)CC2)c1,inactive: 6.65%
9,CCC(CC)C(=O)Nc1cccc(-c2nc3ccccc3s2)c1,inactive: -3.3%
10,CCOc1ccc(-c2nnc(SCC(=O)NCc3ccc(C)cc3)nc2-c2ccc(OCC)cc2)cc1,inactive: -2.3%
11,CCC(C(=O)Nc1cc(-c2nc3cccnc3s2)ccc1C)c1ccccc1 (configuration not stated),inactive: 28.1%
12,Cc1ccc(Cl)cc1NC(=O)Cn1c(=O)c2ccccc2n2nncc12,inactive: 0.337%
13,CCOc1ccccc1C1CC(=O)Oc2c1c(=O)n(C)c1ccccc21 (configuration not stated),inactive: 15.8%
14,CCCCCCCCCCCCCCCCN,inactive: -4.95%
15,Cc1ccc(-c2csc(=Nc3ccc(F)cc3)n2Cc2ccc3c(c2)OCO3)cc1C,inactive: 11.6%
16,CCOc1ccccc1NS(=O)(=O)c1ccc(-c2cnc(C3CC3)o2)cc1,inactive: -46.2%
17,COc1cccc(NC(=O)CC(C)S(=O)(=O)c2ccc3c(c2)NC(=O)CO3)c1 (configuration not stated),inactive: -13.6%
18,CC(=O)Nc1ccc(NC(=O)c2oc3ccc4c(c3c2C)C(=O)CC(C)(C)O4)cc1,inactive: -1.57%
19,O=c1c(N2CCc3ccccc3C2)csc2ccccc12,inactive: 18.5%
20,O=C(NCCc1ccccc1)c1ccc2c(c1)N(Cc1ccccc1F)C(=O)c1ccccc1S2=O (configuration not stated),inactive: 3.31%
21,Cc1ccc(-c2ccc(=O)n(CC(=O)Nc3cccc(C#N)c3)n2)cc1,inactive: -10.2%
22,CCOc1ccc(-c2nc3c(c(SCC(=O)N4CCCCC4)n2)Cc2ccccc2O3)cc1,inactive: 5.67%
23,CNC(=O)C1CCC(Cn2c(=O)c3sccc3n(CC(=O)NCc3ccc(F)cc3)c2=O)CC1 (configuration not stated),inactive: -17%
